# Test results as given in the supplement of paper PMC12217912.
# This is one part of the list. The full chains were built here from the parent and the listed change. Values near 0.05 are background.
# B1: TEV protease; numbered along this chain (parent)
# chain: MGESLFKGPRDYNPISSSICHLTNESDGHTTSLYGIGFGPFIITNKHLFRRNNGTLVVQSLHGVFKVKDTTTLQQHLVDGRDMIIIRMPKDFPPFPQKLKFREPQREERICLVTTNFQTKSMSSMVSDTSCTFPSGDGIFWKHWIQTKDGQCGSPLVSTRDGFIVGIHSASNFTNTNNYFTSVPKNFMELLTNQEAQQWVSGWRLNADSVLWGGHKVFMVKPEEPFQPVKEATQL
# Variants of: B1
# Assay: raw area under fraction-flipped curve 0-4 h after induction (AUC4h, not background-subtracted), DNA-recorder readout of cleavage of the substrate (dimensionless); higher = more cleavage of the substrate by the protease variant
# Details: temperature: 34 °C; time window: 0-4 h after rhamnose induction
# 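Note: Bxb1 expression induced with 0.2% (w/v) L-rhamnose at OD600 near 0.5, cultures sampled hourly, flipped fraction per protease–substrate barcode pair counted by paired-end Illumina sequencing.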
Variant,area with substrate LNLYFQS,area with substrate NNLYFQS,area with substrate TNLYFQS,area with substrate MNLYFQS,area with substrate PNLYFQS,area with substrate QNLYFQS,area with substrate SNLYFQS,area with substrate WNLYFQS,area with substrate VNLYFQS,area with substrate YNLYFQS
MGESLFKGPRDYNPISSSICHLTNESDGHTTSLYGIGFGPFIITNKHLFRRNNGTLVVQSLHGVFKVKDTTTLQQHLVDGRDMIIIRMPKDFWPFPQKLKFREPQREERICLVTTNFQTKSMSSMVSDTSCTFPSGDGIFWKHWIQTKDGQCGSPLVSTRDGFIVGIHSASNFTNTNNYFTSVPKNFMELLTNQEAQQWVSGWRLNADSVLWGGHKVFMVKPEEPFQPVKEATQL [P93W],0.0616,0.0525,0.0647,–,–,–,–,–,–,–
MGESLFKGPRDYNPISSSICHLTNESDGHTTSLYGIGFGPFIITNKHLFRRNNGTLVVQSLHGVFKVKDTTTLQQHLVDGRDMIIIRMPKDFPPFPQKLKFREPQREERICLVTTNFQCKSMSSMVSDTSCTFPSGDGIFWKHWIQTKDGQCGSPLVSTRDGFIVGIHSASNFTNTNNYFTSVPKNFMELLTNQEAQQWVSGWRLNADSVLWGGHKVFMVKPEEPFQPVKEATQL [T119C],–,–,–,0.0576,–,–,–,–,–,–
MGESLFKGPRDYNPISSSICHLTNESDGHTTSLYGIGFGPFIITNKHLFRRNNGTLVVQSLHGVFKVKDTTTLQQHLVDGRDMIIIRMPKDFPPFPQKLKFREPQREERICLVTTNFQGKSMSSMVSDTSCTFPSGDGIFWKHWIQTKDGQCGSPLVSTRDGFIVGIHSASNFTNTNNYFTSVPKNFMELLTNQEAQQWVSGWRLNADSVLWGGHKVFMVKPEEPFQPVKEATQL [T119G],–,–,0.0707,0.0511,0.0708,0.0668,–,–,–,–
MGESLFKGPRDYNPISSSICHLTNESDGHTTSLYGIGFGPFIITNKHLFRRNNGTLVVQSLHGVFKVKDTTTLQQHLVDGRDMIIIRMPKDFPPFPQKLKFREPQREERICLWTTNFQTKSMSSMVSDTSCTFPSGDGIFWKHWIQTKDGQCGSPLVSTRDGFIVGIHSASNFTNTNNYFTSVPKNFMELLTNQEAQQWVSGWRLNADSVLWGGHKVFMVKPEEPFQPVKEATQL [V113W],–,0.0443,0.0677,0.0735,0.065,–,0.0549,0.0676,–,–
MGESLFKGPRDYNPISSSICHLTNESDGHTTSLYGIGFGPFIITNKHLFRRNNGTLVSQSLHGVFKVKDTTTLQQHLVDGRDMIIIRMPKDFPPFPQKLKFREPQREERICLVTTNFQTKSMSSMVSDTSCTFPSGDGIFWKHWIQTKDGQCGSPLVSTRDGFIVGIHSASNFTNTNNYFTSVPKNFMELLTNQEAQQWVSGWRLNADSVLWGGHKVFMVKPEEPFQPVKEATQL [V58S],–,0.0522,0.0397,–,–,–,0.0394,0.0593,0.0507,0.0543
MGESLFKGPRDYNPISSSICHLTNESDGHTTSLYGIGFGPFIITNKHLFRRNNGTLVVQSLHGVFKVKDTTTLQQHLVDGRDMIIIRMPKDFPPFPQKLKFREPQREERICLVTTNFQTKSMSSMVSDTSCTFPSGDGIFWKHWIQTKDGQCGSPLVSTRDGFIVGIHSASNFTNTNNYFKSVPKNFMELLTNQEAQQWVSGWRLNADSVLWGGHKVFMVKPEEPFQPVKEATQL [T181K],–,0.0525,–,–,0.0463,–,–,0.0525,0.0421,0.0716
MGESLFKGPRDYNPISSSICHLTNESDGHTTSLYGIGFGPFIITNKHLFRRNNGTLVVQSLHGVFKVKDTTTLQQHLVDGRDMIIIRMPKDFPPFPQKLKFREPQREERICLVTTNFQTKSMSSMVSDTSCTFPSGDGIFWKHWIQTKDGQCGSPLVSTRDGFIVGIHSSSNFTNTNNYFTSVPKNFMELLTNQEAQQWVSGWRLNADSVLWGGHKVFMVKPEEPFQPVKEATQL [A170S],–,–,–,0.07,–,–,–,0.0552,–,–
MGESLFKGPRDYNPISSSICHLTNESDGHTTSLYGIGEGPFIITNKHLFRRNNGTLVVQSLHGVFKVKDTTTLQQHLVDGRDMIIIRMPKDFPPFPQKLKFREPQREERICLVTTNFQTKSMSSMVSDTSCTFPSGDGIFWKHWIQTKDGQCGSPLVSTRDGFIVGIHSASNFTNTNNYFTSVPKNFMELLTNQEAQQWVSGWRLNADSVLWGGHKVFMVKPEEPFQPVKEATQL [F38E],–,–,–,0.0498,–,–,–,–,–,–
MGESLFKGPRDYNPISSSICHLTNESDGHTTSLYGIGFGPFIITNKHLFRRNNGTLVVQSLHGVFHVKDTTTLQQHLVDGRDMIIIRMPKDFPPFPQKLKFREPQREERICLVTTNFQTKSMSSMVSDTSCTFPSGDGIFWKHWIQTKDGQCGSPLVSTRDGFIVGIHSASNFTNTNNYFTSVPKNFMELLTNQEAQQWVSGWRLNADSVLWGGHKVFMVKPEEPFQPVKEATQL [K66H],0.058,0.0468,0.0622,–,–,0.0706,0.0723,0.0678,–,–
MGESLFKGPRDYNPISSSICHLTNESDGHTTSLYGIGFGPFIITNKHLFRRNNGTLVVQSLHGVFKVKDTTTLQQHLVDGRDMIIIRMPKDFPPFPQKLKFREPQREERICLVTTNFQTKSMSSMVSDTSCTFPSGDGIFWKHWIQTKDGQCGSPLVSTRDGFIVGIHSASWFTNTNNYFTSVPKNFMELLTNQEAQQWVSGWRLNADSVLWGGHKVFMVKPEEPFQPVKEATQL [N172W],0.0897,–,0.0632,–,–,–,–,0.0656,–,–
MGESLFKGPRDYNPISSSICHLTNESDGHTTSLYGIGFGPFIITNKHLFRRNNGTLVVQSLHGVFKVKDTTTLQQHLVDGRDMIIIRMPKDFPPFPQKLKFREPQREERICLVTTNFQTKSMSSMVSDTSCTFPSGDGIFWKHWIQTKDGQCGSPLVSTRDGFIVGIHSASNFTNTNCYFTSVPKNFMELLTNQEAQQWVSGWRLNADSVLWGGHKVFMVKPEEPFQPVKEATQL [N178C],–,0.0644,–,–,–,–,–,0.0502,–,0.0596
